Experimental data published in the supplement of paper PMC3334620.
In all, about 33,000 sequences were measured (“E-score (-0.5 to 0.5)”: median about -0.043, highest 2% from about 0.37 on). This is one part of the list.

These sequences were tested against T1, Upc2 (UniProt Q12151) (assay: PBM E-score (8-mer binding enrichment) (E-score (-0.5 to 0.5)); higher = stronger / more preferred TF binding; most listed sequences are background and not binding sites). Settings: protein concentration: 200 nM; construct: GST-full length.
T1 sequence: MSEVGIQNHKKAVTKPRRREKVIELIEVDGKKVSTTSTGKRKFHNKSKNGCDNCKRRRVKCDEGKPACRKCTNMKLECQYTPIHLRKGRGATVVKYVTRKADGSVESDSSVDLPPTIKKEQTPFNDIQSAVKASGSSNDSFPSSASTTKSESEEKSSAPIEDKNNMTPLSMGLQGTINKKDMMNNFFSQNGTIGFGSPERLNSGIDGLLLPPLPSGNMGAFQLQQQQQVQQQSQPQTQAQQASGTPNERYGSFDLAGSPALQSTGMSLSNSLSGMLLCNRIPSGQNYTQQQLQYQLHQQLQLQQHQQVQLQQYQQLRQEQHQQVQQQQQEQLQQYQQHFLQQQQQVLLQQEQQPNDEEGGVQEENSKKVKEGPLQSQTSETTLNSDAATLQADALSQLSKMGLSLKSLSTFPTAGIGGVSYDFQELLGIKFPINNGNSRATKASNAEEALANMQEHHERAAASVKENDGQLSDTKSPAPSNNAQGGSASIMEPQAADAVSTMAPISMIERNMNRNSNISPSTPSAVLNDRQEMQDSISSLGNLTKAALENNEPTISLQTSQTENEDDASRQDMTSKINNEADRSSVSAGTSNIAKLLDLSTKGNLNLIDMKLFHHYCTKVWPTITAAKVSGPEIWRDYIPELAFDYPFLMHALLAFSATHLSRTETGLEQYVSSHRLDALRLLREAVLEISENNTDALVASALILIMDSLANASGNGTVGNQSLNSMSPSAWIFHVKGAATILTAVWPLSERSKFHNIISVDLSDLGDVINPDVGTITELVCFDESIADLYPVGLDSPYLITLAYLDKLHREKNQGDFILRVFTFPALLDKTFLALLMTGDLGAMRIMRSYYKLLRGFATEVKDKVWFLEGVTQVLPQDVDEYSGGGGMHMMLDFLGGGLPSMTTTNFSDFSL
Summary of the method: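 Masliner-normalised scans of fluorescent anti-GST signal were the basis for scoring. That signal came from GST-tagged yeast transcription factors applied at about 100-200 nM to double-stranded universal all-10-mer Agilent arrays on fresh or once-stripped slides. Each ungapped eight-base word, pooled with its reverse complement, received an E-score from the Universal PBM Analysis Suite.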

| Sequence | PBM E-score |
| --- | --- |
| GCGGTTAA | 0.0132 |
| GACCTAGC | -0.115 |
| CTCGTGAA | 0.185 |
| CCATCGGA | 0.05 |
| ATTGATGC | 0.0479 |
| GCATAACA | 0.0119 |
| CGATCGAG | 0.121 |
| AGAGGCCG | -0.105 |
| ATATAAAA | -0.0137 |
| CCGGCACA | -0.18 |
| ACGGTTTA | 0.0939 |
| ACTTATCT | -0.106 |
| CGAGACAC | -0.0291 |
| GTTGTTTA | 0.0127 |
| AGGCCAAC | 0.0461 |
| CTGAATCA | -0.241 |
| GCATGGAC | -0.202 |
| CAGACCGG | -0.0907 |
| GCGGCCGC | 0.0128 |
| ACGAAGTC | 0.298 |
| ACACTCAT | -0.233 |
| CCCTAATC | -0.0172 |
| CATGCCCA | -0.146 |
| ACGAAAGG | 0.32 |
| CAACGACG | 0.296 |

| Sequence | PBM E-score |
| --- | --- |
| AGCGTGTG | -0.0415 |
| ACTCTAGA | -0.0372 |
| ATCTTGGA | -0.128 |
| AATCGGCA | -0.133 |
| CAAAAGAG | -0.0542 |
| GGCAGTGA | -0.313 |
| AAAAGTTA | 0.0517 |
| ACTTTCGA | 0.0303 |
| GCGTACGC | 0.281 |
| GGGCAGAC | -0.215 |
| CACCGGCC | -0.0276 |
| CTCACTGA | -0.29 |
| CTCCGGAA | -0.107 |
| GACTACGC | -0.0586 |
| ACTATCCG | 0.211 |
| ATATTTGG | -0.0511 |
| CGATGGAC | 0.186 |
| AATTCAAC | -0.0242 |
| ATAACAAG | -0.044 |
| AAAGGTAA | 0.132 |
| CCTACAGG | -0.0609 |
| TCTTTCCA | -0.151 |
| CCAGCCCG | -0.21 |
| CCCTTAGC | -0.209 |
| CGTTAAAC | 0.411 |

| Sequence | PBM E-score |
| --- | --- |
| CACTAAAA | 0.0777 |
| TATGATCA | 0.0786 |
| AGAGGTAA | 0.134 |
| GATCCGAA | 0.146 |
| ATGGAACA | -0.303 |
| AGGGAAAC | -0.0321 |
| GGCCGCAC | -0.246 |
| GATGTAAA | 0.169 |
| TCGTAACA | 0.404 |
| AATCCCGT | 0.111 |
| GGAAAAGA | -0.11 |
| ATTACGGA | 0.185 |
| AGGATCTA | -0.116 |
| AAGATCGG | -0.0541 |
| GCGGTAAC | 0.0815 |
| AAAACGTG | 0.00865 |
| GCCGCGCA | -0.167 |
| ACTCAGGA | -0.162 |
| CCTATGGC | -0.195 |
| AAACGGTC | 0.344 |
| AGAATGGG | -0.208 |
| GGCCGAAA | -0.0925 |
| CTCCTTGC | -0.0057 |
| AACGAAGA | 0.424 |
| CCTAGTTC | -0.11 |

| Sequence | PBM E-score |
| --- | --- |
| CAATGCGG | -0.205 |
| AAGTATAG | 0.0267 |
| CACTAGGG | -0.346 |
| GGACACAC | -0.122 |
| AGTACAAC | -0.0045 |
| ACTCAGGG | -0.091 |
| CGAGCGCG | 0.188 |
| CACACCAA | 0.054 |
| GCCACCAA | -0.0957 |
| ATGTCATA | -0.0145 |
| GTTCTAGA | 0.00744 |
| CTGCTCCA | -0.215 |
| AGCTTTTG | 0.0424 |
| TCGTCGAA | -0.0136 |
| ACTCGTCG | 0.2 |
| TATTTTCA | 0.0629 |
| TCTGGGAA | 0.0669 |
| AGCTACCT | -0.161 |
| ATTGCGAG | 0.16 |
| AATCGACA | 0.142 |
| GGTCTCCA | -0.235 |
| GAGTCTTA | -0.0154 |
| AATTACGA | 0.341 |
| CCTTGACG | -0.219 |
| AGGTGGCC | -0.0807 |

| Sequence | PBM E-score |
| --- | --- |
| CACAAGGG | -0.253 |
| ACACAGGT | -0.112 |
| ATAAGTAG | -0.138 |
| AGTGGGAC | -0.0952 |
| ATGCGAAA | 0.204 |
| CTTATCTA | 0.0609 |
| CCTTCCAG | -0.259 |
| GGCCCGCA | -0.103 |
| AGATGCCA | -0.132 |
| AATGAAGA | -0.00976 |
| AGAGCGTG | 0.0116 |
| CCATGACC | -0.0468 |
| AGCCGCGC | -0.211 |
| AGGTCGGA | -0.126 |
| TGCTTAAA | 0.0684 |
| GCCCTTCA | -0.144 |
| CATGTATC | -0.00115 |
| CCAACGGG | -0.0966 |
| CGGTATCA | 0.0895 |
| GACGTCCC | -0.0634 |
| AGAACATG | -0.00034 |
| CGGCTGCC | -0.0671 |
| AGGATGTG | -0.212 |
| ACGGGCCG | 0.226 |
| TCCAGTCA | -0.258 |

| Sequence | PBM E-score |
| --- | --- |
| GATTTAGC | 0.101 |
| TAAACCAA | 0.0347 |
| ATTTACTC | -0.0904 |
| AGCGTAAT | -0.0565 |
| GATTGCCA | -0.0898 |
| AACCAAAT | -0.00887 |
| CTGCGTTA | -0.046 |
| GCATGACA | -0.149 |
| CTTCGGCC | -0.198 |
| ATAGACAT | -0.151 |
| GGAGACCC | -0.241 |
| GGCTGTGA | -0.125 |
| GAGCAACC | 0.0353 |
| ATTAGACG | -0.0483 |
| ATTGAATA | 0.0931 |
| CGAACGGC | 0.291 |
| ATTATGAG | -0.102 |
| ATCCACAG | -0.262 |
| AGTAGGGG | -0.2 |
| AGTCTTCA | -0.285 |
| AAAGTTGT | 0.075 |
| AACGAGGC | 0.444 |
| TCGTGACA | -0.00407 |
| CCCCCGGG | -0.0962 |
| GGAGCAGA | -0.203 |

| Sequence | PBM E-score |
| --- | --- |
| AGAAGGTC | -0.217 |
| GAGGTGGA | -0.297 |
| GCCGAGGA | 0.0753 |
| ACCGAAGG | 0.0458 |
| AGAAGTAT | 0.0151 |
| CGCGTAGA | 0.165 |
| AGCACGGG | -0.14 |
| CATACCTA | -0.324 |
| ACGTGCCG | 0.1 |
| CAATAGAG | -0.00365 |
| CCTCGTCG | 0.195 |
| CAGGGGTC | -0.0983 |
| TGGAGCCA | -0.179 |
| AGATAGGC | 0.102 |
| TACTAAGA | 0.062 |
| AAGACTGG | -0.109 |
| CGACAGAG | 0.0348 |
| CGAGTCCG | 0.0814 |
| CTGGAAAA | -0.119 |
| CTGCGGAC | -0.189 |
| CTAGTTAA | -0.133 |
| AACTCGGC | 0.138 |
